The whole screen tested about 310,000 compounds, of which about 14,000 (4.5%) showed an effect of 50% or more. Effects have a minus sign here. The list shows a part of the results.
Target: human ether-à-go-go-related gene (hERG) potassium channel (human, UniProt Q12809)
Test: primary screen, population patch clamp on CHO cells stably expressing hERG
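Further: peak tail current of the secondary pulse compared with the same well before compound.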

Chain of human ether-à-go-go-related gene (hERG) potassium channel (Q12809 whole entry, looked up): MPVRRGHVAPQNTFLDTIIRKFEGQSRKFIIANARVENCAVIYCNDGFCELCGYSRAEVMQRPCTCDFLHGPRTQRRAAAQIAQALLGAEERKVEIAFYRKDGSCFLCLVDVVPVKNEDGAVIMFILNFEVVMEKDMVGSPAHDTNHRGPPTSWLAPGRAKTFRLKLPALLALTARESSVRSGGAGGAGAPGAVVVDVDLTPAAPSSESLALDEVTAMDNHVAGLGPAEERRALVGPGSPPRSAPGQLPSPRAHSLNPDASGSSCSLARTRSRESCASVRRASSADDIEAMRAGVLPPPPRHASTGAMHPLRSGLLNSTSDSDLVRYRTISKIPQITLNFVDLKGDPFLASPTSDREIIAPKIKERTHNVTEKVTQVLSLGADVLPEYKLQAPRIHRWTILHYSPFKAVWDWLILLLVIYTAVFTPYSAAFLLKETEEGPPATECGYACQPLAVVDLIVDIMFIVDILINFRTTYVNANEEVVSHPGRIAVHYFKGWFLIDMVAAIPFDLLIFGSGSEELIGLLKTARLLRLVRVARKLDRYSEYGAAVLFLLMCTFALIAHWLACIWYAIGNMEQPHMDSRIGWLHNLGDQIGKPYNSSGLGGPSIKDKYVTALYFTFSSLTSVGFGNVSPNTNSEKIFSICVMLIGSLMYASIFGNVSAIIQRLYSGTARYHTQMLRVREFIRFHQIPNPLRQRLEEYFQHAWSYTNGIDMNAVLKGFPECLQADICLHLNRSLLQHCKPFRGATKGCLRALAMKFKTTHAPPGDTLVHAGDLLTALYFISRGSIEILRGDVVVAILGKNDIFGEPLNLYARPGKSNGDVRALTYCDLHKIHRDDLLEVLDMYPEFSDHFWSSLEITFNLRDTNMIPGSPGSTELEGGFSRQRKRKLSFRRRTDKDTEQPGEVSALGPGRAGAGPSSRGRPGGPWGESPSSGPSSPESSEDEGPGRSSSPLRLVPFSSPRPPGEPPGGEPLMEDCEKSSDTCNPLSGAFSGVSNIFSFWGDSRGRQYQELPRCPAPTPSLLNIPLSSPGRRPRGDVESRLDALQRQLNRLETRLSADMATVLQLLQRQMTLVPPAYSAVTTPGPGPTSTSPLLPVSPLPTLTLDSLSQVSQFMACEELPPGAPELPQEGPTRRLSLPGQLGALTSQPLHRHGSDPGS

Point of comparison: `CCOc1ccc(S(=O)(=O)N2CCC(C(=O)NCCc3ccccc3)CC2)cc1`, “hERG current change (%, negative = inhibition) at 10uM” value 29.1%. Against it:
- CC1Cc2ccccc2N1C(=O)Cn1cnc2c1c(=O)n(C)c(=O)n2C (centres unmarked) — lower, -8.03%
- CC(C)(C)c1cc(=O)n(-c2ccccc2)[nH]1 — lower, 20.8%
- CCOc1cccc(CNc2ccc(O)cc2)c1OCc1ccc(Cl)cc1 — lower, 10.3%
- CCNC(=S)N1C2CCC1CC(NC(=O)NC1CCCCC1)C2 (centres unmarked) — lower, -2.68%
- Cc1c(NC(=O)C(C)OC(=O)CNC(=O)c2ccccc2)c(=O)n(-c2ccccc2)n1C (centres unmarked) — lower, -7.12%
- CC(NC(=O)c1cc(S(=O)(=O)N(C)C)ccc1N1CCCC1)C1CC2CCC1C2 (centres unmarked) — lower, -7.29%
- Cc1nc2ccc(NC(=O)COc3ccccc3[N+](=O)[O-])cc2s1 — lower, 23%
- CCOC(=O)Nc1sc2nc(C)cc(C)c2c1-n1cccc1 — lower, 9.51%
- CCCCCCCC(=O)NNC(=O)CCC(=O)O — lower, 9.3%
- COc1cc(NC(=O)c2ccc(Br)o2)c(C(=O)O)cc1OC — lower, 20.8%
- Cc1cccc(-c2c(NC(=O)c3ccco3)oc3c(C)cccc3c2=O)c1 — lower, 18.7%
- CN(C)C=Nc1nonc1-c1ncn[nH]1 — lower, 6.57%
- Cc1ccccc1C(=NC(=O)c1ccccc1)c1ccccc1 — lower, -9.42%
- NC(=O)C1CCN(C(=O)CCc2ccsc2)CC1 — lower, 11.9%
- Nc1nc2ccc(Cl)cc2c2nc(-c3ccco3)nn12 — lower, 6.59%
- CCOc1ccc(-n2c(SCC(=O)NCc3ccco3)nc3c([nH]c4ccccc43)c2=O)cc1 — lower, 0.926%
- CCOC(=O)CCC(=O)Nc1ccccc1C(N)=O — lower, 7.17%
- COc1ccc(CNC(=O)C/C(C)=N/NC(=O)Cc2ccc(OC)cc2)cc1 — lower, 3.39%
- C=CCN=C(NC#N)SCCc1ccccc1 — lower, 1.24%
- O=C1CCCC(O)=C1N=Nc1c(Cl)cc(C(F)(F)F)cc1Cl — lower, 15.4%
- COc1ccccc1N=Cc1c(O)c2ccccc2oc1=O — lower, -5.8%
- O=C(NC1CCC(O)CC1)C1CCN(S(=O)(=O)c2c(Cl)cccc2Cl)CC1 (centres unmarked) — lower, -2.42%
- COCCNC(=S)NNC(=O)c1cc(-c2cccnc2)nc2ccccc12 — lower, 17.7%
- Cc1cc(C)c(NC(=O)C2C3/C=C\CCCCC32)c(C)c1 (centres unmarked) — lower, 5.08%
- C=CCOc1ccccc1CNCCCN1CCOCC1.Cl — lower, 28.6%
- Cc1cccc(C)c1NC(=O)CS(=O)CC(=O)NC1CCCc2ccccc21 (centres unmarked) — lower, 7.3%
- Cc1[nH]c2ccccc2c1C(=O)CSc1nnc(C2CC2)o1 — lower, 6.93%
- CN(c1ccccc1)S(=O)(=O)c1cccc(NC(=O)COC(=O)C2CCCCC2)c1 — lower, 13.7%
- COc1ccc(/C=N/NC(=O)CN(Cc2ccccc2)S(=O)(=O)c2ccc3c(c2)OCCO3)cc1 — lower, 0.168%
- Cc1ccccc1/C=N\NC(=O)c1ccc(Cn2cccn2)o1 — lower, 4.98%
- CCC[N+](CC#Cc1ccccc1)(CCC)CC(=O)OCC — lower, -1.25%
- CCn1ncc(CNC(=O)C2(C)CC2(Br)Br)c1C (centres unmarked) — lower, 23.3%
- CCOC1OC(=O)C(Cl)=C1Nc1ccccc1C (centres unmarked) — lower, 7.7%
- O=C(Nc1ccccc1)N1CCN(CCc2ccccc2)CC1 — lower, -14.5%
- Cc1ccc(OCCCCN2CCCCC2)cc1 — lower, -12.1%
- COc1cc(C(=O)N(Cc2ccc(F)cc2)C2CCS(=O)(=O)C2)cc(OC)c1OC (centres unmarked) — lower, -9.26%
- COc1ccc(NC(=O)N[C@@H](CCSC)C(=O)O)cc1OC — lower, -0.994%
- COc1ccc(OCCCn2cccc2/C=C2/C(=N)N3OC(C)=CC3=NC2=O)cc1 — lower, -8.31%
- CCOC(=O)c1ccc(N2C(=O)[C@@H](c3ccccc3)[C@H]2c2ccccc2)cc1 — lower, 17.7%
- COc1ccc(CC(=O)Oc2cc(C)[nH]c(=O)c2[N+](=O)[O-])cc1 — lower, -0.383%
- COc1nc(C)cc(C)c1S(=O)(=O)c1ccccc1C — lower, 7.41%
- CCN1C(=O)C(CC(=O)Nc2ccc(F)cc2)N(CCCN2CCN(c3ccc(F)cc3)CC2)C1=S (centres unmarked) — lower, -62.2%
- COCCn1nnnc1C(c1ccccc1OC)N1CCc2ccccc2C1 (centres unmarked) — lower, -14.4%
